According to ChEMBL document CHEMBL1157539, “Thousands of chemical starting points for antimalarial lead identification” (Nature, 2010):
Whole data set: some 13,000 compounds, median “IFI” near 4, cut for the highest 2% near 17. The list shows a part of the results.

Assay: GSK_TCMDC: Inhibition Frequency Index (IFI). The number of non-kinase HTS assays where a compound showed > 50 % inhibition, expressed as a percentage of the number of such assays in which the compound was tested (-0 is zero)
Assay type: functional

Compound | IFI
CCOc1cc(CC)ccc1C1CCN(CCN2CCC(NC(=O)c3ccc(-c4ccc(C#N)cc4)cc3)CC2)CC1 | 6.36%
O=C(NCCCNc1nc2ccccc2[nH]1)c1cccc(OC(F)(F)F)c1 | 1.46%
O=C(Nc1cccc(CN2CCCN(Cc3ccc(O)cc3)CC2)c1)c1cccc(C(F)(F)F)c1 | 1.38%
O=C(Cc1c[nH]cn1)Nc1cccc(-c2ccc(-c3nc4cc(C(F)(F)F)ccc4[nH]3)s2)c1 | 3.74%
O=C(/C=C/c1cccc(Cl)c1)Nc1ccc2nc(CN3CCCC3)ccc2c1 | 7.59%
CN1CCN(CCCN(Cc2csc(-c3ccc(CNCc4ccccc4)cc3)n2)S(=O)(=O)c2ccccc2)CC1 | 5.63%
O=c1cc(NCCCNCc2ccccc2-c2ccccc2)[nH]c2ccccc12 | 7.64%
COCCNCc1ccc(-c2ccccc2CNC2CCN(Cc3ccccc3)CC2)cc1 | 3.68%
CCc1cc2c(Sc3nnc(N)s3)ncnc2s1 | 4.83%
O=C(NC1CCN(Cc2ccccc2)CC1)c1cc(C(=O)NC2CCN(Cc3ccccc3)CC2)cc(C(=O)NC2CCN(Cc3ccccc3)CC2)c1 | 1.45%
Cc1ccccc1OCCCON1C(=N)N=C(N)NC1(C)C | 5.59%
CN1CCC(N2CCN(CCOc3cc(NC(=O)/C=C/c4ccccc4Cl)ccc3Br)CC2)CC1 | 7.3%
CN1CCN(c2cccc(NC(=O)c3ccc(-c4ccc(C#N)cc4)cc3)c2)CC1 | 2.68%
CCOc1ccc(C2CCN(CCCCNC(=O)c3ccc(NC(=O)c4ccc(Cl)cc4)cc3)CC2)c(Cl)c1 | 7.08%
COc1ccc(CCNCCCCCCNCCc2ccccc2Cl)cc1OC | 2.88%
O=C(OCc1ccccn1)c1nc2ccccc2[nH]1 | 1.42%
CN1CCCc2ccc(NC(=O)c3ccc(-c4cc(C(F)(F)F)nn4C)s3)cc2C1 | 3.45%
CN1CCN(c2ccc3[nH]c(-c4ccc5[nH]c(-c6ccc([N+](=O)[O-])c(N)c6)nc5c4)nc3c2)CC1 | 5.97%
CCCC(C)n1ccc2c3c(N)nc(N)nc3ccc21 (stereo not given) | 4.9%
CN1CCc2cc(CN3CC4(C)CC3CC(C)(C)C4)c(O)cc2C(c2ccccc2)C1 (stereo not given) | 3.03%
COc1ccc(-c2cc(C(=O)N[C@@H](CC3CCCCC3)C(=O)NC3CCCc4ccccc43)ccc2O)cc1 (stereo not given in full) | 0.75%
CC(C)(C)c1ccc(N2C(N)=NC(N)=NC2(C)C)cc1 | 2.21%
CC(=O)Nc1cccc(C(=O)Nc2ccc(-c3cccc(-c4nc5cc(F)ccc5[nH]4)c3)cc2)c1 | 3.51%
CC1(C)NC(N)=NC(=N)N1OCCCNC(=O)c1ccc([N+](=O)[O-])cc1 | 2.24%
CN1CCN(c2cccc(-c3nnc(-c4ccc(OCC(=O)NCc5cccc(C(F)(F)F)c5)c([N+](=O)[O-])c4)o3)c2)CC1 | 2.17%
